# Experimental data from PubChem BioAssay (NCATS).
# Results filed as inconclusive are left out. Unless noted, the call rests on the fitted dose curve; in most records, active means well fitted curve in the direction sought with a large enough effect; inconclusive means small, poorly fitted or top-dose-only effect, or another doubt; inactive means no such curve, though single readings can be large; an effect the other way counts as inactive or inconclusive. Some entries of the source have several records that differ or are many. The list is limited to them. An entry can have further records. Values that stand side by side are repeats (runs, samples, wells, individuals or studies). A structure can be active in one record and inactive in another. Records carry a tag for their origin. Letters count within one entry.
# Experiments:
# [1] = qHTS for Inhibitors of the Functional Ribonucleoprotein Complex (vRNP) of Lymphocytic Choriomeningitis Arenaviruses (LCMV): Viability assay - alamar blue signal for LCMV Primary Screen (AID 1347085; calls by dose curve; tested in HEK293 reporter line; further: nearly all actives have a fitted effect of over 80% in size; further: potency means the concentration at half of the fitted maximal effect)
# [2] = biological target: Nucleoprotein (Lymphocytic choriomeningitis virus (strain Armstrong)) (UniProt P09992); experiment: qHTS for Inhibitors of the Functional Ribonucleoprotein Complex (vRNP) of Lymphocytic Choriomeningitis Arenaviruses (LCMV): LCMV Primary Screen - GLuc reporter signal (AID 1347086; calls by dose curve; further: nearly all actives have a fitted effect of over 70% in size; further: potency means the concentration at half of the fitted maximal effect)
# [3] = qHTS for Inhibitors of the Functional Ribonucleoprotein Complex (vRNP) of Lassa (LASV) Arenavirus: LASV Primary Screen - GLuc reporter signal (AID 1347082; calls by dose curve; tested in HEK293 reporter line; further: nearly all actives have a fitted effect of over 60% in size; further: potency means the concentration at half of the fitted maximal effect)
# [4] = qHTS for Inhibitors of the Functional Ribonucleoprotein Complex (vRNP) of Lassa (LASV) Arenavirus: Viability assay - alamar blue signal for LASV Primary Screen (AID 1347083; calls by dose curve; tested in HEK293 reporter line; further: nearly all actives have a fitted effect of over 80% in size; further: potency means the concentration at half of the fitted maximal effect)
# [5] = Cell Viability qHTS for small molecule stabilizers of the endoplasmic reticulum resident proteome (AID 1508629); conditions: cell viability counter-screen, 100 nM thapsigargin for final 4 h;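 further: human SH-SY5Y neuroblastoma cells carrying the GLuc-SERCaMP reporter; compound exposure about 46 h in total before the viability read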
# [6] = tested on: Zika virus NS2B-NS3 protease (linked construct); experiment: Primary screen NINDS Rhodamine qHTS for Zika virus inhibitors (AID 1347160); further: nearly all actives have a fitted effect of over 55% in size; further: potency means the concentration at half of the fitted maximal effect
# Method in brief: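 Each compound, titrated, sat 15 min with 25 nM linked protease before 1.5 microM Rhodamine110 substrate went in. Fluorescence gain over the next 15 min, in pH 8.0 Tris with Tween 20, gave Hill-fitted curves.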
# On the % scale 0 is the no-effect control and ±100 the full control effect.
# Sequence of UniProt P09992 (P09992 whole entry, looked up): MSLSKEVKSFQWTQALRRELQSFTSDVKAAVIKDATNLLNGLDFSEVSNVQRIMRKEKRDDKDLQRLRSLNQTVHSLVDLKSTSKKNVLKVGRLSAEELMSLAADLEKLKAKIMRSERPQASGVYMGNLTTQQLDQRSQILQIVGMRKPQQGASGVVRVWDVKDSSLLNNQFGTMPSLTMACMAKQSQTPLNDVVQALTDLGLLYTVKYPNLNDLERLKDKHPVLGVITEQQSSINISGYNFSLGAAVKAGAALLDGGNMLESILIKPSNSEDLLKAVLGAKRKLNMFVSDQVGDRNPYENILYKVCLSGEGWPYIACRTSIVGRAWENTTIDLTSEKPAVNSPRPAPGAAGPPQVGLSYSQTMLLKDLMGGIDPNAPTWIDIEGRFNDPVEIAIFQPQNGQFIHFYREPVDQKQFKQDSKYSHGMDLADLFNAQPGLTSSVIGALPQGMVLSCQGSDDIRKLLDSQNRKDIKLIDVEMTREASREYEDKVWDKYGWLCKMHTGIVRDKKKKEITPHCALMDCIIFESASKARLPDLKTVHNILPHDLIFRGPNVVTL
smiles,measurement,setting,value
O=C1c2c(O)cc(O)cc2OC(c2ccc(O)c(O)c2)C1O (stereo not given),Potency,[1],inactive [sample A] and active: 17.2 µM [sample B]
same,Potency,[2],inactive [sample A] and active: 24.3 µM [sample B]
O=C(CCc1ccc(O)cc1)c1c(O)cc(O)cc1O,Potency,[3],inactive [sample A] and active: 5.44 µM [sample B] and inactive [sample C]
same,Potency,[4],inactive [sample A] and active: 2.73 µM [sample B] and inactive [sample C]
same,Potency,[1],inactive [sample A] and active: 3.43 µM [sample B] and inactive [sample C]
same,Potency,[2],inactive [sample A] and active: 3.06 µM [sample B] and inactive [sample C]
O=C1c2ccccc2-c2n[nH]c3cccc1c23,Potency,[1],inactive [sample A] and active: 24.3 µM [sample B]
CC(C)[C@]1(O)[C@@H](OC(=O)c2ccc[nH]2)[C@@]2(O)[C@@]3(C)C[C@]4(O)O[C@@]5([C@H](O)[C@@H](C)CC[C@]35O)[C@@]2(O)C41C,max response,[5],"inactive: -21.8, 19.4, 15.8, 15.9% [separate samples]"
Cc1ccc(S(=O)(=O)N[C@@H](Cc2ccccc2)C(=O)CCl)cc1,Potency,[4],inactive [sample A] and active: 24.3 µM [sample B]
CN1C(=O)[C@]23CC4C(C)(C)[C@@]5(C[C@@]41CN2CC[C@@]3(C)O)C(=O)Nc1c5ccc2c1OC=CC(C)(C)O2 (stereo not given in full),Potency,[6],active: 12.6 µM [sample A] and inactive [sample B]
